From US20250381289A1 (Genmab, published 2025)
Where two headings read alike, the source gives them in different places.

Key:
Assay in all cases: flow cytometry, EBC-1 cells (co-express EGFR and cMET; both arms contribute)
[1] = molecular target: T1, cMET on EGFR and cMET co-expressed tumor cell lines (UniProt P08581)
T1 construct: whole, on cells

[2] = molecular target: T1, cMET on EGFR and cMET co-expressed …; remark: listed apart in the source
[3] = molecular target: T2, EGFR on EGFR and cMET co-expressed tumor cell lines (UniProt P00533)
T2 construct: whole, on cells

T1 sequence (P08581 25-1390 limits assumed): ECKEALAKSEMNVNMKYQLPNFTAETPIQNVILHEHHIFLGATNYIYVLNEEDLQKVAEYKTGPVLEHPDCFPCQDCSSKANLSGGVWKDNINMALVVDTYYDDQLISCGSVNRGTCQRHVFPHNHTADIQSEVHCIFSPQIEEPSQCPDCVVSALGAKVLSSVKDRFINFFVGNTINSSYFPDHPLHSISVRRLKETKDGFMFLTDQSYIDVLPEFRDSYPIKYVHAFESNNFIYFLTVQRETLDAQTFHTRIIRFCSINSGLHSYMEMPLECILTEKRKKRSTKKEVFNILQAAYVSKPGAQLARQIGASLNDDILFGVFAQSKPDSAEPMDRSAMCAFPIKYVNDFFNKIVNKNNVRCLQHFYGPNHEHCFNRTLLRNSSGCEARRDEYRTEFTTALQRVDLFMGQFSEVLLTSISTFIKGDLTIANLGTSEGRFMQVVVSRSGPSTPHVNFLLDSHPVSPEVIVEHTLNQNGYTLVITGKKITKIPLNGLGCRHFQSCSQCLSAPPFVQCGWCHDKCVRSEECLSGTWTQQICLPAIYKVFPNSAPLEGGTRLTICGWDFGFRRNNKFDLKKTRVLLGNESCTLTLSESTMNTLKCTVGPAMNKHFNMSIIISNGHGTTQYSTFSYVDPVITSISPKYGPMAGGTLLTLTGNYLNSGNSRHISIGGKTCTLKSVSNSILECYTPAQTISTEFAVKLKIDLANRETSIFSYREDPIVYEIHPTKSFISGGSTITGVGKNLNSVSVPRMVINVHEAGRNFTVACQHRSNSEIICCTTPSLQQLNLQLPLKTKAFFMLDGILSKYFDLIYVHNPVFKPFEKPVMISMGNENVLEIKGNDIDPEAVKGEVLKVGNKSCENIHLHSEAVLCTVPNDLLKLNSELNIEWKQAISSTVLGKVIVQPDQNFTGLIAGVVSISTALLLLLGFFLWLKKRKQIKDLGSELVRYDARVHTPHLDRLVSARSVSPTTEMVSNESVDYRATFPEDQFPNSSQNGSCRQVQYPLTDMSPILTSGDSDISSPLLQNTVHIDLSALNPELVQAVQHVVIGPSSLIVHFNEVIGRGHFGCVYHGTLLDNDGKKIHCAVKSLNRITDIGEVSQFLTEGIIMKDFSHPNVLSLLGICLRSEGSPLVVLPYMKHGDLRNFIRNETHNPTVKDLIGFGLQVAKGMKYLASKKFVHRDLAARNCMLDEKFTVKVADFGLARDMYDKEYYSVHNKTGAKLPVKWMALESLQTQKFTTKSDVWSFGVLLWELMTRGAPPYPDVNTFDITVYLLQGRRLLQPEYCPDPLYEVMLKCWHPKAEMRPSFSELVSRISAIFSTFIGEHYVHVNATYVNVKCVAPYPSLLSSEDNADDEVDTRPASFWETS

| EC50 (read off the curve) [1] | EC50 (read off the curve) [2] | EC50 (read off the curve) [3] | Binder |
| --- | --- | --- | --- |
| ~2 nM | ~3 nM | – | Bsab 6 (bispecific antibody, human IgG1, kappa, L234A L235A, 1+1 scFab knob-in-hole format; also called Basb 6) chain 1: AIQLTQSPSSLSASVGDRVTITCRASQDISSALVWYQQKPGKAPKLLIYDASSLESGVPSRFSGSESGTDFTLTISSLQPEDFATYYCQQFNSYPLTFGGGTKVEIKRTVAAPSVFIFPPSDEQLKSGTASVVCLLNNFYPREAKVQWKVDNALQSGNSQESVTEQDSKDSTYSLSSTLTLSKADYEKHKVYACEVTHQGLSSPVTKSFNRGECGGGGSGGGGSGGGGSGGGGSGGGGSGGGGSGGGGSGGGGSQVQLVESGGGVVQPGRSLRLSCAASGFTFSTYGMHWVRQAPGKGLEWVAVIWDDGSYKYYGDSVKGRFTISRDNSKNTLYLQMNSLRAEDTAVYYCARDGITMVRGVMKDYFDYWGQGTLVTVSSASTKGPSVFPLAPSSKSTSGGTAALGCLVKDYFPEPVTVSWNSGALTSGVHTFPAVLQSSGLYSLSSVVTVPSSSLGTQTYICNVNHKPSNTKVDKKV[omitted - human IgG1 Fc with L234A L235A Y349C T366W (EU numbers)] chain 2: DIVMTQSPDSLAVSLGERATINCKSSESVDSYANSFLHWYQQKPGQPPKLLIYRASTRESGVPDRFSGSGSGTDFTLTISSLQAEDVAVYYCQQSKEDPLTFGGGTKVEIKRTVAAPSVFIFPPSDEQLKSGTASVVCLLNNFYPREAKVQWKVDNALQSGNSQESVTEQDSKDSTYSLSSTLTLSKADYEKHKVYACEVTHQGLSSPVTKSFNRGECGGGGSGGGGSGGGGSGGGGSGGGGSGGGGSGGGGSGGGGSQVQLVQSGAEVKKPGASVKVSCKASGYIFTAYTMHWVRQAPGQGLEWMGWIKPNNGLANYAQKFQGRVTMTRDTSISTAYMELSRLRSDDTAVYYCARSEITTEFDYWGQGTLVTVSSASTKGPSVFPLAPSSKSTSGGTAALGCLVKDYFPEPVTVSWNSGALTSGVHTFPAVLQSSGLYSLSSVVTVPSSSLGTQTYICNVNHKPSNTKVDKKVEPKSCDKTHTCPPCPAPEAAGGPSVFLFPPKPKDTLMISRTPEVTCVVVDVSHEDPEVKFNWYVDGVEVHNAKTKPREEQYNSTYRVVSVLTVLHQDWLNGKEYKCKVSNKALPAPIEKTISKAKGQPREPQVYTLPPCRDELTKNQVSLSCAVKGFYPSDIAVEWESNGQPENNYKTTPPVLDSDGSFFLVSKLTVDKSRWQQGNVFSCSVMHEALHNHYTQKSLSLSPGK |
| – | ~3 nM | ~3 nM | Bsab 81 (bispecific antibody, human IgG1, kappa, L234A L235A, 1+1 scFab knob-in-hole format; also called Basb 81) chain 1: AIQLTQSPESLSASVGDRVTITCRASQDISSALVWYQQKPGKAPKLLIYDASSLESGVPDRFSGSESGTDFTLTISSLQPEDFATYYCQQFNSYPLTFGGGTKVEIKRTVAAPSVFIFPPSDEQLKSGTASVVCLLNNFYPREAKVQWKVDNALQSGNSQESVTEQDSKDSTYSLSSTLTLSKADYEKHKVYACEVTHQGLSSPVTKSFNRGECGGGGSGGGGSGGGGSGGGGSGGGGSGGGGSGGGGSGGGGSQVQLVESGGGVVQPGRSLRLSCAASGFTFSTYGMHWVRQAPGEGLEWVAVIWDDGSYKYYGDSVKGRFTISRDNSKNTLYLQMNSLRAEDTAVYYCARDGITMVRGVMKDYFDYWGQGTLVTVSSASTKGPSVFPLAPSSKSTSGGTAALGCLVKDYFPEPVTVSWNSGALTSGVHTFPAVLQSSGLYSLSSVVTVPSSSLGTQTYICNVNHKPSNTKVDKKV[omitted - human IgG1 Fc with L234A L235A Y349C T366W (EU numbers)] chain 2: DIVMTQSPDSLAVSLGERATINCKSSESVDSYANSFLHWYQQKPGQPPKLLIYRASTRESGVPDRFSGSGSGTDFTLTISSLQAEDVAVYYCQQSKEDPLTFGGGTKVEIKRTVAAPSVFIFPPSDEQLKSGTASVVCLLNNFYPREAKVQWKVDNALQSGNSQESVTEQDSKDSTYSLSSTLTLSKADYEKHKVYACEVTHQGLSSPVTKSFNRGECGGGGSGGGGSGGGGSGGGGSGGGGSGGGGSGGGGSGGGGSQVQLVQSGAEVKKPGASVKVSCKASGYIFTAYTMHWVRQAPGQGLEWMGWIKPNNGLANYAQKFQGRVTMTRDTSISTAYMELSRLRSDDTAVYYCARSEITTEFDYWGQGTLVTVSSASTKGPSVFPLAPSSKSTSGGTAALGCLVKDYFPEPVTVSWNSGALTSGVHTFPAVLQSSGLYSLSSVVTVPSSSLGTQTYICNVNHKPSNTKVDKKVEPKSCDKTHTCPPCPAPEAAGGPSVFLFPPKPKDTLMISRTPEVTCVVVDVSHEDPEVKFNWYVDGVEVHNAKTKPREEQYNSTYRVVSVLTVLHQDWLNGKEYKCKVSNKALPAPIEKTISKAKGQPREPQVYTLPPCRDELTKNQVSLSCAVKGFYPSDIAVEWESNGQPENNYKTTPPVLDSDGSFFLVSKLTVDKSRWQQGNVFSCSVMHEALHNHYTQKSLSLSPGK |
